This is one part of the list. The full chains were built here from the parent and the listed change. Inactive controls read about 0.05.
B1: TEV protease; numbered along this chain (parent)
chain: MGESLFKGPRDYNPISSSICHLTNESDGHTTSLYGIGFGPFIITNKHLFRRNNGTLVVQSLHGVFKVKDTTTLQQHLVDGRDMIIIRMPKDFPPFPQKLKFREPQREERICLVTTNFQTKSMSSMVSDTSCTFPSGDGIFWKHWIQTKDGQCGSPLVSTRDGFIVGIHSASNFTNTNNYFTSVPKNFMELLTNQEAQQWVSGWRLNADSVLWGGHKVFMVKPEEPFQPVKEATQL

Variants of: B1
Assay: raw area under fraction-flipped curve 0-4 h after induction (AUC4h, not background-subtracted), DNA-recorder readout of cleavage of the substrate (dimensionless); higher = more cleavage of the substrate by the protease variant
Details: temperature: 34 °C; time window: 0-4 h after rhamnose induction
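Also: Bxb1 expression induced with 0.2% (w/v) L-rhamnose at OD600 near 0.5, cultures sampled hourly, flipped fraction per protease–substrate barcode pair counted by paired-end Illumina sequencing.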

| Variant | area with substrate FNLYFQS | area with substrate GNLYFQS | area with substrate INLYFQS | area with substrate KNLYFQS | area with substrate LNLYFQS | area with substrate MNLYFQS | area with substrate QNLYFQS | area with substrate RNLYFQS | area with substrate SNLYFQS | area with substrate WNLYFQS | area with substrate YNLYFQS | area with substrate HNLYFQS | area with substrate PNLYFQS | area with substrate TNLYFQS | area with substrate NNLYFQS | area with substrate VNLYFQS |
| --- | --- | --- | --- | --- | --- | --- | --- | --- | --- | --- | --- | --- | --- | --- | --- | --- |
| MGESLFKGPRDYNPISSSICHLTNESDGHTTSLYGIGFGPFIITNKHLFRRNNGTLVVQSLHGVFKVKDTTTLQQHLVDGRDMIIIRMPKDFPPFPQKLKFREPQREERICLVTTNFQTKSMSSMVSDTSCTFPSGDGIFWKHWIQTKDGQCGSPLVSTRDGFIVGIHSASNFTNTNNYFTSVPKNFMELLTNQIAQQWVSGWRLNADSVLWGGHKVFMVKPEEPFQPVKEATQL [E195I] | 0.0753 | 0.0576 | 0.0494 | 0.0518 | 0.046 | 0.052 | 0.0836 | 0.0626 | 0.0638 | 0.0719 | 0.0725 | – | – | – | – | – |
| MGESLFKGPRDYNPISSSICHLTNESDGHTTSLYGIGFGPFIITNKHLFRRNNGTLVVQSLHGVFKVKDTTTLQQHLVDGRDMIIIRMPKDFPPFPQKLKFREPQREERICLVTTNFQTKSMSSMVSDTSCTFPSGDGIFWKHWIQTKDGQCGSPLVSTRDGFIVGIHSASNFTNTNNYFTSVPKNFMELLTNQEALQWVSGWRLNADSVLWGGHKVFMVKPEEPFQPVKEATQL [Q197L] | 0.0341 | 0.0617 | 0.0887 | 0.0657 | 0.0649 | 0.0629 | – | – | 0.0796 | 0.0599 | – | 0.0635 | 0.0638 | 0.0686 | – | – |
| MGESLFKGPRDYNPISSSICHLTNESDGHTTSLYGIGFGPFIITNKHLFRRNNGTLVVQSLHGVFKVKDTTTLQQHLVDGRDMIIIRMPKDFPPFPQKLKFREPQREERICLVTTNFQTKSMSSMVSDTSCTFPSGDGIFWKHWIQTKDGQCGSPLVSTRDGFIVGIHSASNFTNTNNYFTSVPKNFMELLTNQEAQQTVSGWRLNADSVLWGGHKVFMVKPEEPFQPVKEATQL [W199T] | 0.0759 | – | 0.0567 | – | – | 0.0531 | – | – | 0.0601 | 0.0471 | 0.0598 | 0.0464 | 0.0745 | 0.0491 | 0.0634 | – |
| MGESLFKGPRDYNPISSSICHLTNESDGHTTSLYGIGFGPFIITNKHLFRRNNGTLVVQSLHGVFKVKDTTTLQQHLVDGRDMIIIRMPKDFPPFPQKLKFREPQREERICLVTTNFQTKSMSSMVSDTSCTFPSGDGIFWKHWIQTKDGQCGSPLVSTRDGFIVGIHSASNFTNTNNYFTSVPKNFMELLTNQEAQQWVSGHRLNADSVLWGGHKVFMVKPEEPFQPVKEATQL [W203H] | 0.0591 | 0.068 | 0.0612 | 0.0334 | 0.0724 | – | – | 0.0495 | – | 0.0606 | 0.0562 | 0.0638 | 0.0597 | – | – | – |
| MGESLFKGPRDYNPISSSICHLTNESDGHTTSLYGIGFGPFIITNKHLFRRNNGTLVVQSLHGVFKVKDTTTLQQHLVDGRDMIIIRMPKDFPPFPQKLKFREPQREERICLVTTNFQTKSMSSMVSDTSCTFPSGDGIFWKHWIQTKDGQCGSPLVSTRDGFIVGIHSASNFTNTNNYFTSVPKNFMELLTNQEAQQWVSGWYLNADSVLWGGHKVFMVKPEEPFQPVKEATQL [R204Y] | 0.0535 | 0.0688 | 0.0699 | – | – | 0.068 | 0.0445 | – | 0.0879 | 0.0636 | 0.0715 | 0.0679 | 0.0737 | 0.0661 | 0.0757 | 0.0771 |
| MGESLFKGPRDYNPISSSICHLTNESDGHTTSLYGIGFGPFIITNKHLFRRNNGTLVVQSLHGVFKVKDTTTLQQHLVDGRDMIIIRMPKDFPPFPQKLKFREPQREERICLVTTNFQTKSMSSMVSDTSCTFPSGDGIFWKHWIQTKDGQCGSPLVSTRDGFIVGIHSASNFTNTNNYFTSVPKNFMELLTNQEAQQWVSGWRLDADSVLWGGHKVFMVKPEEPFQPVKEATQL [N206D] | 0.0699 | 0.0771 | 0.139 | 0.0748 | 0.0784 | 0.0843 | – | 0.0613 | 0.0614 | 0.0593 | 0.0729 | 0.0796 | 0.0691 | – | – | – |
| MGESLFKGPRDYNPISSSICHLTNESDGHTTSLYGIGFGPFIITNKHLFRRNNGTLVVQSLHGVFKVKDTTTLQQHLVDGRDMIIIRMPKDFPPFPQKLKFREPQREERICLVTTNFQTKSMSSMVSDTSCTFPSGDGIFWKHWIQTKDGQCGSPLVSTRDGFIVGIHSASNFTNTNNYFTSVPKNFMELLTNQEAQQWVSGWRLNADMVLWGGHKVFMVKPEEPFQPVKEATQL [S209M] | 0.0584 | – | – | – | 0.0671 | 0.0636 | – | 0.0768 | 0.0741 | 0.0674 | 0.06 | 0.058 | – | – | – | – |
| MGESLFKGPRDYNPISSSICHLTNESDGHTTSLYGIGFGPFIITNKHLFRRNNGTLVVQSLHGVFKVKDTTTLQQHLVDGRDMIIIRMPKDFPPFPQKLKFREPQREERICLVTTNFQTKSMSSMVSDTSCTFPSGDGIFWKHWIQTKDGQCGSPLVSTRDGFIVGIHSASNFTNTNNYFTSVPKNFMELLTNQEAQQWVSGWRLNADSVLTGGHKVFMVKPEEPFQPVKEATQL [W212T] | 0.0546 | 0.056 | 0.054 | 0.0606 | 0.0653 | 0.0595 | – | – | – | 0.0585 | 0.049 | 0.0543 | – | 0.0664 | – | – |
| MGESLFKGPRDYNPISSSICHLTNESDGHTTSLYGIGFGPFIITNKHLFRRNNGTLVVQSLHGVFKVKDTTTLQQHLVDGRDMIIIRMPKDFPPFPQKLKFREPQREERICLVTTNFQTKSMSSMVSDTSCTFPSGDGIFWKHWIQTKDGQCGSPLVSTRDGFIVGIHSASNFTNTNNYFTSVPKNFMELLTNQEAQQWVSGWRLNADSVLWGGHKVCMVKPEEPFQPVKEATQL [F218C] | 0.0572 | – | – | – | 0.0576 | – | – | – | – | – | – | 0.0557 | – | 0.0667 | – | – |

— the supplement of paper PMC12217912
